Assay results as given in PubChem BioAssay (NCATS).
Inconclusive means that the source gave no clear call. Such entries were picked first, then a sample of the others. No potency is given beside an inconclusive call; the fits are too rough. Active and inactive are the calls of the source. Calls come from the whole dose curve; as a rule, active = well fitted inhibition curve with a large enough effect; inconclusive = small, poorly fitted or top-dose-only effect; inactive = no such curve, though single readings can be large or run the other way.

The compounds below were run against Rap guanine nucleotide exchange factor 3 (Homo sapiens) (UniProt O95398) (assay: Confirmatory qHTS for antagonist of cAMP-regulated guanine nucleotide exchange factor 3 (EPAC1) (AID 1645880; note: nearly all actives have a fitted effect of over 55% in size;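 for activity, negative = inhibition: plate controls were DMSO only for no effect and full effect of the ATA control for full effect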)). Conditions: EPAC1 Rap1B-BODIPY-GDP exchange, fluorescence; activity, negative = inhibition: at 115 µM (top of the series).
UniProt O95398, sequence (O95398 whole entry, looked up): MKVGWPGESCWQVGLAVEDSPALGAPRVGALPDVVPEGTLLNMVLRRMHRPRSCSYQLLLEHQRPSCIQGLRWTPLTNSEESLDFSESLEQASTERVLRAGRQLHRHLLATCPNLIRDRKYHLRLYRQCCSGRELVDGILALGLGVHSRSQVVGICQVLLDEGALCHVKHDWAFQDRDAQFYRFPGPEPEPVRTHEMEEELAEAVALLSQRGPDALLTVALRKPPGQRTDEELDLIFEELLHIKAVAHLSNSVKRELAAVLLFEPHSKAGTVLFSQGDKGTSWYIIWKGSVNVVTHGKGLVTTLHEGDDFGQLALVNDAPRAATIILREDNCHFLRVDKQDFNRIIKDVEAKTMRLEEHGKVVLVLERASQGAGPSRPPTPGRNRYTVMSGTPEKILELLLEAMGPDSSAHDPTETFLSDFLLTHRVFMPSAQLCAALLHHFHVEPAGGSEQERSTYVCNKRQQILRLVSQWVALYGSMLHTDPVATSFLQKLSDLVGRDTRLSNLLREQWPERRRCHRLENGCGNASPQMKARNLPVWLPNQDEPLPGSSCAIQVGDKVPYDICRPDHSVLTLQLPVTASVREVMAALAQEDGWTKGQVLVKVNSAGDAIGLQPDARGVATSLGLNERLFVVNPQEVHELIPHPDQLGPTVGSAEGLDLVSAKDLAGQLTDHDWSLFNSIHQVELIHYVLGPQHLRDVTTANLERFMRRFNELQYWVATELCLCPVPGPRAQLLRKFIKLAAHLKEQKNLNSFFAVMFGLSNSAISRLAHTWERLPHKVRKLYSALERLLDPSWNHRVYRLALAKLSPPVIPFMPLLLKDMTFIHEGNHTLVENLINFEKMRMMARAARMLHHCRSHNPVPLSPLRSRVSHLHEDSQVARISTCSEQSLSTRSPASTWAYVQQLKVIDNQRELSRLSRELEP
Procedure, shortened: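 Nucleotide exchange uses 100 nM EPAC1, 250 nM RAP1B-BODIPY-GDP and 50 uM GDP, with compounds in a concentration-titration series. After 5 min at room temperature, fluorescence (480 nm ex/540 nm em) is read every 5 min for 30 min. Data are normalized to control ATA and DMSO.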
Potency is the fitted concentration of half-maximal effect; tags give direction and shape of the fitted curve.

Row | Compound | Potency | activity, negative = inhibition
1 | Cc1cccc(OC(=O)Nc2ccc(C(=O)O)c(O)c2)c1 | inconclusive [inhibitor, partial curve, poor fit] | 
2 | CC[C@@H]1CC=C[C@H]2[C@H]1C(=O)N(Cc1ccccc1)[C@H]2c1ccc(OC)c(Cl)c1 | inconclusive [inhibitor, full curve] | 
3 | O=C(O)/C=C\C(=O)Nc1ccccc1C#Cc1ccc(Br)cc1 | inconclusive [inhibitor, partial curve] | 
4 | CC(=O)CCc1oc2ccccc2c1-c1ccccc1 |  | inactive: -26%
5 | COC(=O)/C(=C/Nc1ccc(O)cc1)[N+](=O)[O-] |  | inactive: -7.53%
6 | CCCCc1ccc(NC(=O)CN2C(=O)C3CCCCC3C2=O)cc1 (stereo not given) | inconclusive [inhibitor, partial curve] | 
7 | Cc1cc(NC(=O)CS(=O)(=O)c2cn(Cc3cccc(Br)c3)c3ccccc23)no1 | inconclusive [inhibitor, partial curve, poor fit] | 
8 | CC(C)C(NC(=O)c1ccccc1)C(=O)OCn1nnc2ccccc2c1=O (stereo not given) |  | inactive: -20.4%
9 | Cc1ccccc1NS(=O)(=O)c1ccc2c3c(cccc13)C(=O)N2C | inconclusive [inhibitor, partial curve, poor fit] | 
10 | Cc1ccc(-c2csc(/C(C#N)=C(\O)CCl)n2)cc1 | inconclusive [inhibitor, full curve] | 
11 | Cc1oc2ccc(O)c(CN3CCCCC3)c2c1C(=O)Nc1cccc(C(F)(F)F)c1 | inconclusive [inhibitor, partial curve] | 
12 | N#Cc1c(NC(=O)C2CC=CCC2C(=O)O)sc2c1CCCCCC2 (stereo not given) | inconclusive [inhibitor, partial curve] | 
13 | Cc1ccc(/C=C/C(=O)Nc2nnc(SCc3ccc(C#N)cc3)s2)o1 | inconclusive [inhibitor, partial curve] | 
14 | COc1cccc(COC(=O)CSCC(=O)Nc2cccc(C)c2)c1OC | inconclusive [inhibitor, partial curve, poor fit] | 
15 | O=C(COc1ccc2ccccc2c1)Nc1cccc(C(=O)Nc2ccccc2C(=O)O)c1 | active: 33.8 µM | 
16 | O=C(Nc1cccc(NC(=O)c2cccs2)c1)c1ccc(Br)o1 | inconclusive [inhibitor, partial curve] | 
17 | CCc1nc2c(OCc3ccc(C(=O)OC)cc3)cccn2c1N(C)C(=O)c1ccc(OC)cc1 | inconclusive [inhibitor, partial curve, poor fit] | 
18 | Cc1cccc(N2C(=O)C(O)=C(C(=O)c3cccs3)C2c2cccc(Oc3ccccc3)c2)n1 (stereo not given) | inconclusive [inhibitor, partial curve] | 
19 | CC(C)CCNC(=O)c1cnn2c(C(F)(F)F)cc(-c3ccco3)nc12 | inconclusive [inhibitor, full curve, poor fit] | 
20 | COc1ccc(C2NC(=O)N(C)C3=C2C(=O)N(c2cccc(Cl)c2)C3)cc1 (stereo not given) |  | inactive: -44.9%
21 | CCC1=NN2C(=N)/C(=C/c3ccc(OS(=O)(=O)c4ccccc4)cc3)C(=O)N=C2S1 | inconclusive [inhibitor, partial curve] | 
22 | COc1cc(/C=C2\C(=N)N3N=C(S(C)(=O)=O)SC3=NC2=O)ccc1OS(=O)(=O)c1ccc(C)cc1 | active: 60.1 µM | 
23 | O=C(CN1C(=O)/C(=C2/SC(=S)N(CCS(=O)(=O)O)C2=O)c2ccccc21)Nc1cccc(Br)c1 | inconclusive [inhibitor, partial curve] | 
24 | Fc1ccc(/C=C2\CCCC3=C2Nc2ncnn2C3c2ccc(F)cc2)cc1 (stereo not given) | inconclusive [inhibitor, partial curve] | 
25 | CC(C)[C@H](NC(=O)NCCc1ccc(F)cc1)C(=O)O |  | inactive: -7.42%
26 | CC(C)(C(=O)N1CCC1(C)C(=O)NS(=O)(=O)c1ccccc1Cl)c1ccccc1 (stereo not given) |  | inactive: -19%
27 | O=C(c1sc2cc(F)ccc2c1Cl)N1CCN(c2ccccc2)CC1 |  | inactive: -16.2%
28 | O=C(COC(=O)c1c2c(nc3ccccc13)/C(=C\c1ccco1)CC2)NC1CCCC1 | inconclusive [inhibitor, full curve] | 
29 | COc1ccc(OC)c(Nc2cc3ccccc3c(=O)[nH]2)c1 | inconclusive [inhibitor, partial curve] | 
30 | CCN1/C(=C\c2ccc3ccccc3[n+]2CC)Sc2cc(C)ccc21 | inconclusive [inhibitor, partial curve] | 
